Test results taken from PubChem BioAssay AID485344 (National Center for Advancing Translational Sciences (NCATS), 2010).
The whole screen tested about 340,000 compounds, of which about 6,900 (2%) were called active. Cut-off read from the data, not from the text of the source: active = inhibition above about 30%; inactive = below that, where a call was filed. This is a selection; strong and weak results do not stand in their true shares. Where no call is shown, the source filed none.

What follows are compounds tested against D(2) dopamine receptor (Homo sapiens) (UniProt P14416) (assay: HTS Assay for Allosteric Antagonists of the Human D2 Dopamine Receptor: Primary Screen for Antagonists). Conditions: HEK293 TREx D2 cells, calcium flux, dopamine EC80; at 10 µM; stronger effect = higher value.
UniProt P14416, sequence (P14416 whole entry, looked up): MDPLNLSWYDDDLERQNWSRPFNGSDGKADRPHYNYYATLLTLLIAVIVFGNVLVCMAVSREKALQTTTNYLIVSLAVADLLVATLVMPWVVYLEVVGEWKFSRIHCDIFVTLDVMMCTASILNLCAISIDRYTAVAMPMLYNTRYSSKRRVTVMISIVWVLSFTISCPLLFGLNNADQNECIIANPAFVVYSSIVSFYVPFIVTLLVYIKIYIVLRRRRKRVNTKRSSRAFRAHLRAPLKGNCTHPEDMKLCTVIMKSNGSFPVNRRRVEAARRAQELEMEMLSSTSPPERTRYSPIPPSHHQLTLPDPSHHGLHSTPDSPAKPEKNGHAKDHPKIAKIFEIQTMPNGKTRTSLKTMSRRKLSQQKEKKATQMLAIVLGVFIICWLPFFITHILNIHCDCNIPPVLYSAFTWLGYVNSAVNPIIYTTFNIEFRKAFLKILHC
Method in brief: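 HEK293 T-REx D2 cells, tet-induced, calcium dye no-wash. Cpd pintool add, 180 s kinetic, then EC80 DA, 180 s kinetic. Ca flux read.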
Note: 0% is about no effect.

| SMILES | inhibition |
| --- | --- |
| CCOC(=O)C1CCN(C(=O)c2ccc(-n3ccc4ccccc43)s2)CC1 | 1.83% |
| COc1ccc(Cn2ccn(Cc3cccc(OC)c3)c(=O)c2=O)cc1 | -13.1% |
| Cc1ccccc1C1CC(=O)Nc2ccc3ccccc3c21 (configuration not stated) | 0.835% |
| Cc1ccc(C(=O)c2cn(CC(=O)Nc3ccc(C)cc3Cl)c3nc(C)ccc3c2=O)cc1 | -10% |
| Cc1cccc(NC(=O)N2CC(=O)Nc3sc4c(c3C2c2ccccc2)CCCC4)c1C (configuration not stated) | 3.04% |
| CC(=O)c1cccc(NC(=O)C2CCN(S(=O)(=O)c3ccc4c(c3)oc(=O)n4C)CC2)c1 | 18.6% |
| CCOC(=O)c1cccc(NC(=O)CCn2c(-c3ccc(F)cc3)cc(C(=O)OCC)c2C)c1 | -13.3% |
| COc1cc(OC)cc(C(=O)NCC(=O)Nc2ccc(OC)c(Cl)c2)c1 | active: 36.8% |
| O=C(CSCc1ccccc1Cl)N1CCN(c2ccc(Cl)cc2)CC1 | 4.65% |
| COc1ccc(NC(=O)c2ccc3c(c2)OCO3)cc1Cl | active: 39.3% |
| COc1c(C)cccc1C(=O)Nc1cccc2ccc(C)nc12 | -1.15% |
| COC(=O)c1ccccc1NC(=O)NC1CCN(Cc2ccccc2)CC1 | active: 63.9% |
| CCCS(=O)(=O)N1CC(=O)N(c2ccc(Cl)cc2C)C(C)(C(=O)NC2CCCC2)C1 (configuration not stated) | -9.97% |
| COc1cc2nc(NC(=O)c3ccc(S(=O)(=O)N4CCOCC4)cc3)sc2cc1OC | -5.77% |
| COc1ccc(NC(=O)CSC2=Nc3ccccc3C3=NC(CCC(=O)NC4CCCCC4)C(=O)N23)cc1 (configuration not stated) | 21.2% |
| Cc1cc(C)nc(NC(C)(C)C(=O)O)n1 | active: 32.5% |
| CCc1nn(Cc2ccc(Cl)cc2)c(=O)c2cc3cc(C)ccc3n12 | 7.36% |
| Cc1cccc(NS(=O)(=O)c2ccc3c(c2)C(C)(C)C(=O)N3C)c1 | -18.1% |
| O=C(CN(c1ccccc1)S(=O)(=O)c1ccc(Cl)cc1)Nc1cccnc1 | active: 33.8% |
| Cc1ccc(NC(=O)c2sc3nc4c(cc3c2N)CN(Cc2ccccc2)CC4)cc1 | 15% |
| Cc1oc2ncn(C)c(=O)c2c1C(=O)N1CCN(c2ccccc2F)CC1 | -13.7% |
| CCN1C(=O)c2ccccc2Sc2ccc(NC(=O)c3ccc(Cl)cc3)cc21 | 15.7% |
| COc1ccc2c(c1)c1c(c(=O)n(CCc3ccccc3)c(=O)n1Cc1ccc(F)cc1)n2C | 3.43% |
| CCC(=O)Nc1cccc(C(=O)OCc2cc(=O)n3nc(CC)sc3n2)c1 | -0.331% |
| Cc1ccccc1Cn1c(CN2CCC(C(=O)NCCc3ccccc3)CC2)cc2ccccc21 | 3.98% |

| SMILES | inhibition |
| --- | --- |
| CCN(CC)CCCNC(=O)c1nn(C)c2c1CS(=O)(=O)c1ccccc1-2 | 4.45% |
| COc1ccc2c(c1)c1c(c(=O)n(-c3ccc(F)c(Cl)c3)c(=O)n1Cc1ccccc1C)n2C | -4.42% |
| Cc1ccc2sc(NC(=O)c3ccc4c(c3)OCCO4)nc2c1C | 2.74% |
| COc1ccc(NC(=O)c2c(-c3ccc(C)cc3)nnc3ccccc23)c(OC)c1 | 4.86% |
| CCN(CC)c1nc2ccccc2nc1C(=O)Nc1cccc(C(C)=O)c1 | 24.4% |
| CCSC1=NC2(CCN(C(=O)NC3CCCCC3)CC2)N=C1c1ccc(Cl)cc1 | -7.16% |
| O=C(NCCCN1CCN(c2ccc(F)cc2)CC1)c1ccc2nc(Cc3ccccc3)oc2c1 | -19.1% |
| CCOCCc1nn2c(=O)cc(COC(=O)C3CCCCC3)nc2s1 | 8.44% |
| CCOC(=O)c1c(C)[nH]c(C)c1S(=O)(=O)N1CCCC(C(=O)N2CCN(c3ccccc3)CC2)C1 (configuration not stated) | 13.2% |
| Cc1ccc2c(=O)cc(C(=O)Nc3cccc(C(F)(F)F)c3)oc2c1C | 12.3% |
| Cc1cccn2c(=O)c3cc(C(=O)NC(C)c4ccccc4)c(=N)n(CCCO)c3nc12 (configuration not stated) | -4.55% |
| Cc1ccc(NC(=O)CSc2nnc3scc(-c4ccccc4)n23)cc1 | 6.65% |
| COC(=O)c1ccc(OCC2c3cc(OC)c(OC)cc3CCN2C(=O)c2ccc(F)cc2)cc1 (configuration not stated) | 0.973% |
| COCCCNc1oc(-c2ccc(COc3ccc(Cl)cc3)o2)nc1C#N | -1.24% |
| CCCCCNC(=O)CCCCCn1c(=O)[nH]c2ccsc2c1=O | -8.94% |
| O=C(Nc1sc2c(c1C(=O)NCC1CCCO1)CCC2)c1cc(=O)c2ccccc2o1 (configuration not stated) | -11.3% |
| COc1ccc(CNC(=O)C2CCN(c3nc4ccccc4[nH]3)CC2)cc1OC | -5.26% |
| CCn1cc(C(=O)OCC(=O)Nc2cccc(C(C)=O)c2)c(=O)c2ccc(C)nc21 | -7.1% |
| CCOc1ccc(C2CC(=O)Nc3c2c(=O)nc(SCc2ccccc2C)n3C)cc1OC (configuration not stated) | -5.84% |
| COc1ccc(Cn2c(=O)c3oc4ccccc4c3n(Cc3ccc(Cl)cc3)c2=O)cc1 | -10.9% |
| COc1cccc(NC(=O)CC2NCCNC2=O)c1 (configuration not stated) | 12.2% |
| S=c1[nH]c(-c2ccccc2)cn1/N=C/c1ccc(Br)cc1 | active: 36.5% |
| CC(Nc1c[nH]c(=O)[nH]c1=O)c1ccccc1 (configuration not stated) | active: 69.1% |
| COc1ccc(C(=O)NCC(c2ccc(N(C)C)cc2)N2CCc3ccccc32)c(OC)c1 (configuration not stated) | 5.06% |
| CCc1cc(C(=O)Nc2cnn(Cc3ccccc3C)c2)no1 | 15.3% |

| SMILES | inhibition |
| --- | --- |
| COc1ccc(-c2nc3c(C#N)c[nH]n3c2NC2CCCC2)c(OC)c1 | -3.79% |
| Cc1ccc(NC(=O)CCc2c(C)nc3cc(-c4ccccc4)nn3c2C)cc1F | 1.56% |
| Cc1ccc2c(=O)cc(C(=O)Nc3sc4c(c3C(=O)NCc3cccnc3)CCCC4)oc2c1C | -3.95% |
| Cc1cc(C)cc(C(=O)NCC(=O)OCN2C(=O)c3ccccc3C2=O)c1 | active: 44.1% |
| Cc1cc(C(=O)OCC(=O)Nc2cc(S(=O)(=O)N(C)C)ccc2C)c2ccccc2n1 | active: 36.9% |
| COc1ccc(C2N(C(=O)N(C)C)CCN2S(=O)(=O)c2ccc(OC)cc2)cc1 (configuration not stated) | active: 37% |
| COc1ccc(Cn2ccc3nc(C)c(C(=O)NCc4ccc(F)cc4)cc3c2=O)cc1 | 23.1% |
| Cc1ccc(Cl)cc1N1CCN(Cc2nnc(-c3ccc4c(c3)OCO4)o2)CC1 | -0.854% |
| Cc1cc(NC(=O)C2CCN(S(=O)(=O)c3ccc(Br)s3)CC2)ccc1Br | 10.4% |
| Cc1ccc(CNC(=O)CSc2n[nH]c(-c3ccc(F)cc3)n2)cc1 | -8.04% |
| O=S(=O)(c1ccc2nc(N3CCN(c4cccc(Cl)c4)CC3)ccc2c1)N1CCCCC1 | -3.54% |
| CCN(CC)c1ccc(-c2nc(-c3ccccc3C)no2)cc1[N+](=O)[O-] | 17.6% |
| Cc1ccc(Nc2nc(C)nc(N)c2S(=O)(=O)c2ccccc2)cc1 | -2.08% |
| Cc1ccc(C)c(Cn2c(C3CC(=O)N(c4ccccc4C)C3)nc3ccccc32)c1 (configuration not stated) | -8.01% |
| CC1=C(C(=O)Nc2ccccc2)C(c2cccn2C)n2ncnc2N1 (configuration not stated) | 9.9% |
| COc1ccc(Cn2c(=O)c3oc4ccccc4c3n(CC(=O)Nc3ccc(F)cc3F)c2=O)cc1 | 5.32% |
| CCN(CC)c1ccc(NS(=O)(=O)c2cc3[nH]c(=O)c(=O)[nH]c3cc2C)c(C)c1 | -5.86% |
| Cc1cc2oc(C(=O)Nc3ccc(S(=O)(=O)N4CCCCCC4)cc3)cc(=O)c2cc1C | 2.24% |
| CCOc1ccc(-n2nc3ccc(NC(=O)COc4ccc(OC)cc4)cc3n2)cc1 | -11.6% |
| CC(C)c1ccc(OC(=O)c2cc(-c3ccccc3)on2)cc1 | -7.8% |
| Cc1ccc(NC(=O)Nc2nnc(N(C)Cc3ccccc3)s2)c(C)c1 | 9.16% |
| CCCSc1ncc(Cl)c(C(=O)Nc2c(C(=O)Nc3ccc(C)cc3)oc3ccccc23)n1 | 19.3% |
| CC(=O)N1CCc2c(sc3nc(SCC(C)C)n(-c4ccc(F)c(Cl)c4)c(=O)c23)C1 | -19.8% |
| COC(=O)c1ccc(C2C(C(=O)Nc3ccccc3)=C(C)Nc3nc4ccccc4n32)cc1 (configuration not stated) | -1.59% |
| CCc1nc(Oc2cccc(F)c2)c2oc3ccccc3c2n1 | 9.91% |

| SMILES | inhibition |
| --- | --- |
| COc1cc(C)cc2oc(=O)c(CC(=O)NCc3cccc(Cl)c3)c(C)c12 | -0.0751% |
| Cc1ccc(NC(=O)CSc2nc(-c3ccco3)cc(C(F)(F)F)n2)cc1 | -2.56% |
| Cc1ccc(C)c(OC(=O)CSc2nnc(CNC(=O)c3ccccc3)o2)c1 | 5.63% |
| CC1=C(c2ccc(C)cc2)S(=O)(=O)NC1=NCCCN1CCN(c2ccc(F)cc2)CC1 | -1.12% |
| N#Cc1c(-c2ccccc2)nc(SCc2cccc(Cl)c2)[nH]c1=O | active: 30.4% |
| O=c1cc(-c2ccccc2)n2c(SCc3ccc(F)cc3)nnc2[nH]1 | -11.9% |
| Cc1cn2c(=O)cc(COC(=O)COc3ccccc3C)nc2s1 | -5.06% |
| CCN(Cc1ccccc1)C(=O)Cn1c(=O)n(-c2ccc(C)c(C)c2)c(=O)c2c(C)c(C)sc21 | -1.61% |
| O=c1oc2ccccc2cc1-c1cn2cc(Cc3ccc(Cl)cc3)sc2n1 | 4.09% |
| O=C(Nc1cccc(C(F)(F)F)c1)c1cc2ccc3cccnc3c2[nH]1 | 1.27% |
| COc1ccc(CNc2oc(-c3ccc(COc4ccccc4C)o3)nc2C#N)cc1 | 16.9% |
| CC(C)(C)CC(=O)Nc1cc2c3c(c1)CCC(=O)N3CCC2 | active: 35.3% |
| COc1cc(OC)cc(C(=O)Nc2ccc(S(=O)(=O)Nc3nc(C)cc(C)n3)cc2)c1 | active: 33.5% |
| CCn1cc(C(=O)N2CCN(c3ccccc3F)CC2)c(=O)c2cc(S(=O)(=O)N(C)C)ccc21 | -15.6% |
| CCN1CCN(C(=O)CS(=O)Cc2nc(-c3ccc(OC)cc3)oc2C)CC1 (configuration not stated) | active: 39.9% |
| CC(NC(=O)c1ccccc1Cl)C(=O)Nc1ccc2c(c1)OCO2 (configuration not stated) | active: 72.7% |
| CC(=O)N1CCN(C(=O)c2cc(S(=O)(=O)N(C)Cc3ccccc3)ccc2Cl)CC1 | active: 30.1% |
| COc1cccc(N2CCN(C(=O)Cn3c(-c4cccs4)cc4ccccc43)CC2)c1 | -5.19% |
| COc1ccc(CN2C(=O)c3ccccc3C2C(=O)NCCc2ccccc2)c(OC)c1 (configuration not stated) | 22.3% |
| CC(C)CCNC(=O)CN1N=C(c2ccc(Cl)cc2)CCC1=O | -6.51% |
| CC1=C(C(=O)Nc2ccc(C)cc2C)C(c2cccs2)n2nc(SCc3ccccc3Cl)nc2N1 (configuration not stated) | -9.59% |
| O=C(Nc1ccc(-c2cn3cccnc3n2)cc1)c1cc(Br)ccc1Cl | 9.54% |
